Data taken from ChEMBL document CHEMBL4888484, “Replenishing the malaria drug discovery pipeline: Screening and hit evaluation of the MMV Hit Generation Library 1 (HGL1) against asexual blood stage Plasmodium falciparum ,using a nano luciferase reporter read-out” (2022).
Screen size: about 150,000 compounds; about 540 (0.36%) showed an effect of 50% or more. This is one part of the list.

Each compound was assayed on Plasmodium falciparum (assay: Primary screen in NF54 nanoGlo assay, in single point, at 2uM, 72h; a lower Z score goes with more inhibition). Settings: timepoint 72 hour.
Assay type: functional, Erythrocyte

Compound | % Inhibition [%] | Z score
CCOC1CC(N(C)C(=O)c2ccnc(C)n2)C1(CC)CC (centres undefined) | 0 | 0.06
COc1ccc(OC)c(CNC(=O)c2ccccc2NC(=O)c2nsc3ccccc23)c1 | -11 | 1.91
Cc1c(Br)c(-c2nnc(Cc3cccc(Cl)c3)o2)nn1C | -1 | 0.15
CCN1CCN(C(=O)C[C@H]2c3ncccc3C(=O)N2c2cccc(C)c2)CC1 | -13 | 2.36
Cc1ccc(C(=O)N2CCC[C@H](n3cc(-c4nc(C(C)C)no4)nn3)C2)cc1 | 0 | 0.05
CN(CC(=O)Nc1sc2c(c1C#N)CCCCC2)Cc1cc[nH]n1 | -14 | 2.37
CC(=O)c1sc(NC(=O)Cc2c(C)nn(C)c2C)nc1-c1ccccc1 | -1 | 0.16
Cc1ccc(C)n1-c1ccc(Cl)c(C(=O)NCc2ccccn2)c1 | -9 | 1.19
O=C(c1ccncc1)N1CCC(F)(F)[C@@H](COCc2ccccc2)C1 | -4 | 0.66
CC(C)N1C[C@@H]2C[C@H]1C(=O)NC[C@H]1O[C@H](CCOc3ccccc3C(=O)N2)CC[C@H]1NS(C)(=O)=O | 21 | -2.49
COc1ccc(N(C)CCNS(C)(=O)=O)cc1 | -5 | 0.65
COc1ccc(N/N=C2/Nc3ccc(C)cc3C2=O)cc1 | -8 | 1.13
Cc1noc2nc(C3CC3)cc(C(=O)N3CCO[C@@H](CC(=O)O)C3)c12 | 0 | -0.05
O=S(=O)(Nc1nc2ccccc2nc1N1CCCCCC1)c1cc(Cl)ccc1Cl | -2 | 0.31
CN1CCCc2c(c3ccccc3n2CCC(=O)O)C1 | -13 | 1.7
O=S(=O)(c1cncc(F)c1)N(C1CC1)C1COC1 | -3 | 0.23
CN1C(=O)[C@]2(c3ccccc31)[C@H](C(N)=O)C[C@@H]1CCCN12 | -14 | 1.81
O=C(NCc1ccc(-n2cncn2)nc1)c1ccccn1 | -11 | 1.03
FC(F)(F)c1nnc2ccc(N(CC3CC3)CC3CC3)nn12 | -10 | 1.47
O=C(Nc1ccc(Oc2ccc3ccccc3c2Cl)c(Cl)c1)c1ccc2c(c1)OCO2 | -16 | 1.73
CN1CCOC2CN(C(=O)c3c(F)ccc(F)c3F)CC21 (centres undefined) | -1 | 0.09
CC(C)(C)c1ccc(NC(=O)[C@@H]2CCCCS2(=O)=O)cc1 | -10 | 1.25
CCC[C@H](C)c1nc(N2CCN(C(=O)c3ccco3)CC2)c2c(C)nn(-c3ccc(F)cc3)c2n1 | -13 | 2.02
C[C@@H](CCc1ccco1)Nc1nc(-c2ccccn2)no1 | -6 | 0.84
CC(C)[C@H]1C[C@@H]1NC(=O)c1ocnc1C1CC1 | -12 | 1.58
COc1cccc(CNC2CCN(c3ncnc4[nH]cnc34)CC2)c1OC | 17 | -2.91

Compound | % Inhibition [%] | Z score
O=C1O[C@H](C(=O)N2CCN(c3ccccc3)CC2)Cc2ccccc21 | -7 | 1.1
Cn1nc(CN2CCCc3occc3C2)[nH]c1=O | -14 | 2.68
CCC(CC)C(=O)Nc1ccc(Br)cn1 | 0 | -0.03
C=CCNC(=O)[C@H]1CC(=O)N(c2ccc(OCC(=O)NCc3ccccc3)cc2)C1 | -13 | 1.74
CCOC(=O)[C@@H]1CCCCN1Cc1nc(N2CCCN(C(C)=O)CC2)c2cccc(C)c2n1 | -10 | 1.76
COc1ccc(CNc2nc(-c3nnc(-c4ccccc4)o3)nc3ccccc23)cc1 | 55 | -10.02
O=C(NC1CCCCCCC1)c1cc(S(=O)(=O)N2CCCC2)c[nH]1 | -21 | 1.99
Nc1c(Br)cc(Br)cc1C(F)(F)F | -6 | 0.83
O=C(OCC(=O)N1CCC(Cc2ccccc2)CC1)c1ccccc1Oc1ccccc1 | -3 | 0.3
O=C(CCC1CCCCC1)N1CC[C@H]2C(=O)N(Cc3ccccc3)CC(=O)N2CC1 | 1 | -0.15
O=C(Cn1cnc(-c2ccccc2)n1)N1CCOCC1 | -13 | 2.33
Cc1nc(C(=O)N2CC3CCC2C3)cs1 (centres undefined) | -8 | 1.07
COc1cccc(C(=O)NC[C@@]2(COc3cccnc3)C[C@@H](O)[C@@H](O)C2)c1 | 22 | -2.57
CCn1nc([C@H]2CCOC2)nc1-c1cnc(C2CC2)[nH]c1=O | -1 | 0.13
CCOC(=O)[C@@]1(NCc2nnc(C(C)C)o2)CCc2ccccc21 | -12 | 1.07
CCCn1ncc(C(=O)N2CC[C@@H]3OCc4cccc(c4)Oc4cccc(c4)CC(=O)N(CC)CC(=O)N[C@H]3C2)c1C | 19 | -2.62
COc1cccc(C(=O)C[n+]2cc(-c3ccc(Cl)cc3)n(C)c2N)c1 | -6 | 0.83
COCC(NC1CCC2C(C#N)CC1N2Cc1ccccc1)C1CC1 (centres undefined) | 9 | -1.62
C=CC[C@]1(CO)CCCN(c2nccc3ccccc23)C1 | -17 | 2.18
CCCn1c(C)cnc1CC1CCN(C(=O)c2ccn(CC)n2)CC1 | -6 | 0.92
COC[C@@H]1CN(S(=O)(=O)c2ccc(F)cc2)C[C@H]1c1nc(C)no1 | -6 | 1.06
CC(C)[C@H](NC(=O)c1cc(Br)ccc1-n1cnnn1)c1nc2ccccc2n1C | -1 | 0.1
CC(C)(C)c1ccc(S(=O)(=O)NCc2cncc(C#N)c2)s1 | -2 | 0.35
O=C(CCc1ccc(F)cc1)N[C@H]1CN(CCO)C[C@@H]1C1CC1 | -6 | 1.06
COc1cc(-c2ncc(C(=O)NCCN(C)C)c(N(C)Cc3ccccc3)n2)cc(OC)c1OC | -4 | 0.61
Cc1cn2cc(C(=O)N3CCn4nc(CO)cc4C3)ccc2n1 | -24 | 2.38
